Measurements: paper PMC6919601, “Identification of Plasmodium dipeptidyl aminopeptidase allosteric inhibitors by high throughput screening” (PLoS ONE, 2019)
The campaign covered roughly 110,000 compounds. About 230 (0.21%) showed an effect of 50% or more. This is one part of the list.

The compounds below were run against DPAP1 (Plasmodium falciparum, UniProt Q8IIJ9) (assay: primary screen, percent inhibition; read by cleavage of a fluorogenic dipeptide substrate; higher = more effect of the substance).
DPAP1, sequence (Q8IIJ9 whole entry, looked up): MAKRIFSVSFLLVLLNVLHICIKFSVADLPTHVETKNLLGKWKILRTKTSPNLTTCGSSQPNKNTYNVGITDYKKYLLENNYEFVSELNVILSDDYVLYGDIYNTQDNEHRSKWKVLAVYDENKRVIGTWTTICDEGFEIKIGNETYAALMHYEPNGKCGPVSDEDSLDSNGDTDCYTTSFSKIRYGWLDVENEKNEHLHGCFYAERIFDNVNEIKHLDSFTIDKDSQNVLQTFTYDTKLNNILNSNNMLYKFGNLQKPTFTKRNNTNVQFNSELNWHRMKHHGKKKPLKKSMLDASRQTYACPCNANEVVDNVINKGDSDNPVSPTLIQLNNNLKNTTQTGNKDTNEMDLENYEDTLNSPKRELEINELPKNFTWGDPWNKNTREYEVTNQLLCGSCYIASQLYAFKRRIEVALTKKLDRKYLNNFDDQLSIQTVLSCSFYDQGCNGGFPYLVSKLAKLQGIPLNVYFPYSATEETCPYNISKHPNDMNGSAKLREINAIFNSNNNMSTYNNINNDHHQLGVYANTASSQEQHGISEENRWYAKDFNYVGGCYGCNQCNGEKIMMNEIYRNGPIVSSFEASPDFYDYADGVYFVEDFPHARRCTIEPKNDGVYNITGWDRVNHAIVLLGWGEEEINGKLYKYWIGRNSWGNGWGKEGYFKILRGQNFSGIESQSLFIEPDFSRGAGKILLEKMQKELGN
Parameters: species or system P. falciparum D10 trophozoite lysates; single well
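Also: 30 min substrate incubation versus DMSO and 10 µM JCP410 controls.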

In order of rising “% Inhibition @ 10 uM” value:
1. O=C(NCc1ccc2c(c1)OCO2)c1ccccc1C(=O)NCc1ccc2c(c1)OCO2  -10.1%
2. COc1cc(C2C(C#N)=C(N)OC3=C2C(=O)CC(C)(C)C3)ccc1OC(C)C (centres unmarked)  -8.28%
3. O=S(=O)(c1ccc(-c2ccc(O)nn2)o1)N1CCc2ccccc2C1  -8.17%
4. COc1ccc(CCNC(=O)C2=C(C)C(=O)OC23CCN(C(C)=O)CC3)cc1OC  -7.94%
5. CCN(CC)S(=O)(=O)c1ccc(C(=O)N2CCN(C3=NS(=O)(=O)c4ccccc43)CC2)cc1  -7.9%
6. Cc1oc2ncn3nc(-c4ccncc4)nc3c2c1C  -6.26%
7. COc1ccc2cc(C3CC(c4ccc(Cl)cc4)=NN3C(C)=O)c(Cl)nc2c1 (centres unmarked)  -5.31%
8. CC(NS(=O)(=O)c1cccc(Cl)c1)C(=O)Nc1ccc(Br)cc1F (centres unmarked)  -5.3%
9. N#Cc1ccccc1NC(=O)c1sc2nc3c(cc2c1N)CCC3  -5.07%
10. COc1ccc(CN(C)CCN(C)C)c(C)c1C  -4.95%
11. COc1ccc(Cl)cc1NC(=O)CSc1ncccn1  -4.75%
12. COc1ccc(CN2CCN(Cc3ccc(OC)cc3OC)CC2)cc1  -4.6%
13. COc1cc(OC)c(OC)cc1CN1CCN(Cc2ccncc2)CC1  -4.26%
14. CCCc1cc(C(=O)Nc2c(C)nn(Cc3ccc(F)cc3)c2C)no1  -3.77%
15. Cc1cc2cc(CNC(=S)NC(C)(C)C)ccc2[nH]1  -3.7%
16. Cc1cccc(NC(=O)c2c(-c3ccccc3Cl)noc2C)c1  -3.69%
17. CC1CCCC(C)N1CCCNC(=O)Cn1ncc2c3ccccc3n(Cc3ccccc3)c2c1=O (centres unmarked)  -3.35%
18. Cc1sc(-n2cccc2)c(C(C)NC(=O)NC23CC4CC(CC(C4)C2)C3)c1C (centres unmarked)  -3.34%
19. COc1ccc(C(=O)Nc2nc(-c3nnn(-c4cccc(C)c4C)c3C)ns2)cc1  -3.22%
20. CCCc1ccc(OCc2ccc(C(=O)N3N=C(C(F)F)CC3(O)C(F)F)o2)cc1 (centres unmarked)  -3.18%
21. CCOc1ccc(C2CC(=O)Nc3c2c(=O)nc(SCc2ccccc2Cl)n3C)cc1OC (centres unmarked)  -2.88%
22. O=c1oc2ccccc2c(O)c1NS(=O)(=O)c1ccc2c(c1)CCCC2  -2.23%
23. CCOc1ccc(C2SCC(=O)Nc3c2c(C)nn3C2CCOC(C)(C)C2)cc1 (centres unmarked)  -2.21%
24. COc1ccc(NC(=O)COc2ccc(S(=O)(=O)N3CCCC3)cc2)cc1Cl  -1.98%
25. CN(Cc1ccccc1)C(=O)c1ccccc1Br  -1.62%
26. O=C(Cn1cc(S(=O)(=O)Cc2ccccc2)c2ccccc21)NCc1ccccc1  -1.6%
27. CCOc1ccc2nc(N3CCCC(C(=O)NCCCN4CCN(C)CC4)C3)sc2c1 (centres unmarked)  -1.58%
28. Oc1c(C(Nc2ccc(Br)cn2)c2ccccc2)ccc2cccnc12 (centres unmarked)  -1.45%
29. CC1=C(C)CC(C(=O)Nc2ccc(Cl)cc2Cl)C(C(=O)O)C1 (centres unmarked)  -1.28%
30. COc1cc(-c2nnc(SCC#CCO)o2)cc(OC)c1OC  -1.15%
31. O=C(CSc1nc2ccsc2c(=O)n1Cc1ccc2c(c1)OCO2)NCc1ccc(Cl)cc1  -1.12%
32. O=C(CSc1nc2ccccc2nc1SCC(=O)NCC1CCCO1)NCC1CCCO1 (centres unmarked)  -0.834%
33. O=C(COc1ccc(Cl)cc1Cl)N1CCCc2ccccc21  -0.636%
34. CCCC(=O)Nc1ccc(C(=O)Nc2cccc(OC)c2)cc1  -0.545%
35. CC1(C)CC(=O)C(C2C3=C(CC(C)(C)CC3=O)Oc3ccccc32)C(=O)C1 (centres unmarked)  -0.357%
36. Cc1cc(O)c(C(=O)/C=C/c2cccs2)c(=O)o1  -0.268%
37. COc1cc(C(=O)Nc2c(C)cc(Br)cc2C)cc(OC)c1OC  -0.171%
38. Cc1ccc(-n2ncc3c(=O)n(Cc4ccccn4)cnc32)cc1C  -0.0309%
39. CC(=O)Nc1ccccc1-c1nnc(S)nc1O  -0.0217%
40. Cc1cc2oc(C(=O)NCC(c3ccco3)N3CCCC3)c(C)c2cc1C (centres unmarked)  0.19%
41. CCOCCCNC(=O)Cn1ncn2nc(-c3cccs3)cc2c1=O  0.413%
42. CCOCCOC(=O)C1=C(C)NC(=O)CC1c1cccc(Cl)c1 (centres unmarked)  0.484%
43. O=Cc1cc(Cl)cc2c1OCOC2  0.906%
44. CC1=CC(C)(C)N(Cc2ccc([N+](=O)[O-])cc2)c2ccc(C)cc21  1.24%
45. COc1ccc(C(=O)N[C@@H](CSCc2ccccc2)C(=O)NCC#N)cc1  1.35%
46. COc1ccc(C2C3=C(O)CC(C)(C)CC3=Nc3ncnn32)c(OC)c1OC (centres unmarked)  1.73%
47. NC(=O)c1sc2nc(C34CC5CC(CC(C5)C3)C4)cc(C(F)(F)F)c2c1N  1.89%
48. O=C(c1ccc(COc2ccc3c(c2)CCC3)o1)N1N=C(C(F)F)CC1(O)C(F)F (centres unmarked)  2.08%
49. COc1ccc(-c2nc3s/c(=C\c4cc(C)c(O)c(C)c4)c(=O)n3n2)cc1  2.25%
50. Cc1c(C(=O)NC(c2ccccc2)c2ccccc2)cccc1[N+](=O)[O-]  2.26%
51. Oc1c2c(nn1-c1ccccc1)CCC2  2.65%
52. N#C/C(=C\c1cccc2ccccc12)c1nc(-c2ccc([N+](=O)[O-])cc2)cs1  2.7%
53. COc1cc(C(=O)Nc2nnc(CCS(=O)(=O)c3ccc(Cl)cc3)s2)cc(OC)c1OC  2.94%
54. CN1CCCCc2c(n(Cc3ccccc3)c3ccccc23)C1=O  3.34%
55. COc1ccccc1NC(=O)C(C)Oc1ccc(C)cc1 (centres unmarked)  3.67%
56. O=C(/C=C/c1cccc([N+](=O)[O-])c1)Nc1cccc(Cl)c1Cl  3.8%
57. CCOCCCNC(=O)c1nn(C)c2c1CS(=O)(=O)c1ccccc1-2  4.51%
58. Cc1ccc(Nc2nc(-c3ccccc3O)nc3ccccc23)c(C)c1  5.09%
59. O=C1CC(c2ccccc2)CC(=O)C1=CNc1cc(Cl)ccc1Cl (centres unmarked)  5.54%
60. O=C(CCc1ccccc1)Nc1cccc(NC(=O)CCc2ccccc2)c1  14.9%
61. CCn1c2ccccc2c2nnc(SCC(=O)Nc3nccs3)nc21  15.8%
62. C/N=C1/S/C(=C/c2ccc(O)c(OC)c2)C(=O)N1C1CCCCC1  19.8%
